Data published in the supplement of paper PMC9046079.
Structures can show the parent of a compound that is named as a salt. ± gives the standard deviation of the averaged measurements. This is one part of the list.

Tests used:
[1] = system: murine small intestinal organoids (ENR+CD Paneth differentiation); assay: cellular ATP (CellTiter-Glo 3D) relative to plate median (log10 fold change); higher = more viable cells; conditions: 6 d
[2] = system: murine small intestinal organoids (ENR+CD Paneth differentiation); assay: carbachol-stimulated secreted lysozyme activity relative to plate median (log10 fold change); higher = more Paneth cell lysozyme secretion; conditions: 6 d, carbachol 10 µM
[3] = system: murine small intestinal organoids (ENR+CD Paneth differentiation); assay: basal (non-stimulated) secreted lysozyme activity relative to plate median (log10 fold change); higher = more Paneth cell lysozyme secretion; conditions: 6 d
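Wherever basal (non-stimulated) secreted lysozyme activity relative to plate median is given: ISC-enriched organoid precursors grown as 2.5D pseudo-monolayer on Matrigel, compound given on day 0 and day 3, plate values LOESS-normalized before median fold change, three murine donors.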
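Wherever cellular ATP (CellTiter-Glo 3D) relative to plate median is given: 2.5D pseudo-monolayer culture of ISC-enriched organoids partly embedded atop Matrigel, compound added on day 0 and again on day 3, per-plate LOESS correction before median fold change.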

CC(C)N(CC[C@H](c1ccccc1)c1cc(CO)ccc1O)C(C)C
cellular ATP (log10) ([1]; 0.08 µM): -0.0622 ± 0.36 | cellular ATP (log10) ([1]; 0.4 µM): 0.0868 ± 0.11 | cellular ATP (log10) ([1]; 2 µM): 0.0344 ± 0.12 | cellular ATP (log10) ([1]; 10 µM): 0.0167 ± 0.044 | carbachol-stimulated secreted lysozyme activity (log10) ([2]; 0.08 µM): 0.0588 ± 0.06 | carbachol-stimulated secreted lysozyme activity (log10) ([2]; 0.4 µM): 0.0207 ± 0.021 | carbachol-stimulated secreted lysozyme activity (log10) ([2]; 2 µM): 0.00798 ± 0.023 | carbachol-stimulated secreted lysozyme activity (log10) ([2]; 10 µM): 0.0387 ± 0.022 | basal (log10) ([3]; 0.08 µM): 0.184 ± 0.14 | basal (log10) ([3]; 0.4 µM): 0.0763 ± 0.025 | basal (log10) ([3]; 2 µM): 0.154 ± 0.1 | basal (log10) ([3]; 10 µM): 0.0336 ± 0.093

Nc1ncnc2n[nH]c(Nc3ccc(F)cc3)c12
cellular ATP (log10) ([1]; 0.08 µM): 0.108 ± 0.3 | cellular ATP (log10) ([1]; 0.4 µM): -0.293 ± 0.68 | cellular ATP (log10) ([1]; 2 µM): -0.46 ± 0.4 | cellular ATP (log10) ([1]; 10 µM): 0.0552 ± 0.34 | carbachol-stimulated secreted lysozyme activity (log10) ([2]; 0.08 µM): 0.116 ± 0.074 | carbachol-stimulated secreted lysozyme activity (log10) ([2]; 0.4 µM): 0.119 ± 0.19 | carbachol-stimulated secreted lysozyme activity (log10) ([2]; 2 µM): -0.128 ± 0.18 | carbachol-stimulated secreted lysozyme activity (log10) ([2]; 10 µM): -0.128 ± 0.25 | basal (log10) ([3]; 0.08 µM): 0.218 ± 0.23 | basal (log10) ([3]; 0.4 µM): -0.0407 ± 0.031 | basal (log10) ([3]; 2 µM): -0.0548 ± 0.064 | basal (log10) ([3]; 10 µM): -0.0369 ± 0.13

COc1cc(F)c(C(C)C)cc1-c1ccc(C(F)(F)F)cc1CN1C(=O)O[C@H](c2cc(C(F)(F)F)cc(C(F)(F)F)c2)[C@@H]1C [Anacetrapib (MK-0859)]
cellular ATP (log10) ([1]; 0.08 µM): -0.0897 ± 0.087 | cellular ATP (log10) ([1]; 0.4 µM): 0.0353 ± 0.06 | cellular ATP (log10) ([1]; 2 µM): -0.094 ± 0.083 | cellular ATP (log10) ([1]; 10 µM): 0.0313 ± 0.14 | carbachol-stimulated secreted lysozyme activity (log10) ([2]; 0.08 µM): 0.0291 ± 0.17 | carbachol-stimulated secreted lysozyme activity (log10) ([2]; 0.4 µM): -0.0189 ± 0.087 | carbachol-stimulated secreted lysozyme activity (log10) ([2]; 2 µM): -0.0127 ± 0.048 | carbachol-stimulated secreted lysozyme activity (log10) ([2]; 10 µM): -0.0488 ± 0.041 | basal (log10) ([3]; 0.08 µM): 0.0129 ± 0.057 | basal (log10) ([3]; 0.4 µM): 0.00683 ± 0.056 | basal (log10) ([3]; 2 µM): -0.0148 ± 0.031 | basal (log10) ([3]; 10 µM): -0.0361 ± 0.054

CC(C(O)c1ccc(O)cc1)N1CCC(Cc2ccccc2)CC1 (centres undefined) [Ifenprodil Tartrate]
cellular ATP (log10) ([1]; 0.08 µM): 0.102 ± 0.31 | cellular ATP (log10) ([1]; 0.4 µM): 0.111 ± 0.24 | cellular ATP (log10) ([1]; 2 µM): -0.00333 ± 0.21 | cellular ATP (log10) ([1]; 10 µM): -1.03 ± 0.61 | carbachol-stimulated secreted lysozyme activity (log10) ([2]; 0.08 µM): 0.0154 ± 0.14 | carbachol-stimulated secreted lysozyme activity (log10) ([2]; 0.4 µM): -0.0424 ± 0.007 | carbachol-stimulated secreted lysozyme activity (log10) ([2]; 2 µM): -0.0911 ± 0.13 | carbachol-stimulated secreted lysozyme activity (log10) ([2]; 10 µM): -0.333 ± 0.28 | basal (log10) ([3]; 0.08 µM): 0.0565 ± 0.094 | basal (log10) ([3]; 0.4 µM): -0.0185 ± 0.1 | basal (log10) ([3]; 2 µM): 0.123 ± 0.18 | basal (log10) ([3]; 10 µM): -0.219 ± 0.13

Cc1ccc(S(=O)(=O)NC(=O)NN2CC3CCCC3C2)cc1 (centres undefined) [Gliclazide]
cellular ATP (log10) ([1]; 0.08 µM): 0.162 ± 0.15 | cellular ATP (log10) ([1]; 0.4 µM): 0.0538 ± 0.12 | cellular ATP (log10) ([1]; 2 µM): 0.00829 ± 0.24 | cellular ATP (log10) ([1]; 10 µM): -0.0917 ± 0.17 | carbachol-stimulated secreted lysozyme activity (log10) ([2]; 0.08 µM): 0.0591 ± 0.011 | carbachol-stimulated secreted lysozyme activity (log10) ([2]; 0.4 µM): 0.125 ± 0.15 | carbachol-stimulated secreted lysozyme activity (log10) ([2]; 2 µM): -0.0676 ± 0.12 | carbachol-stimulated secreted lysozyme activity (log10) ([2]; 10 µM): -0.0332 ± 0.17 | basal (log10) ([3]; 0.08 µM): 0.036 ± 0.016 | basal (log10) ([3]; 0.4 µM): 0.0319 ± 0.1 | basal (log10) ([3]; 2 µM): 0.104 ± 0.3 | basal (log10) ([3]; 10 µM): -0.0348 ± 0.081

C/C(=C\C(=O)Nc1ccccc1C(=O)O)c1ccc2ccccc2c1
cellular ATP (log10) ([1]; 0.08 µM): 0.223 ± 0.096 | cellular ATP (log10) ([1]; 0.4 µM): -0.0472 ± 0.41 | cellular ATP (log10) ([1]; 2 µM): -0.0336 ± 0.16 | cellular ATP (log10) ([1]; 10 µM): 0.0302 ± 0.28 | carbachol-stimulated secreted lysozyme activity (log10) ([2]; 0.08 µM): 0.0539 ± 0.066 | carbachol-stimulated secreted lysozyme activity (log10) ([2]; 0.4 µM): 0.151 ± 0.095 | carbachol-stimulated secreted lysozyme activity (log10) ([2]; 2 µM): -0.0946 ± 0.09 | carbachol-stimulated secreted lysozyme activity (log10) ([2]; 10 µM): -0.148 ± 0.088 | basal (log10) ([3]; 0.08 µM): 0.0323 ± 0.041 | basal (log10) ([3]; 0.4 µM): 0.0433 ± 0.057 | basal (log10) ([3]; 2 µM): -0.0135 ± 0.051 | basal (log10) ([3]; 10 µM): -0.0616 ± 0.0064

CC1=C(C(=O)OC2CCCCC2)C(c2ccc([N+](=O)[O-])cc2)C2=C(CC(C)(C)CC2=O)N1 (centres undefined)
cellular ATP (log10) ([1]; 0.08 µM): 0.0892 ± 0.23 | cellular ATP (log10) ([1]; 0.4 µM): 0.0945 ± 0.24 | cellular ATP (log10) ([1]; 2 µM): 0.0761 ± 0.21 | cellular ATP (log10) ([1]; 10 µM): -0.343 ± 0.63 | carbachol-stimulated secreted lysozyme activity (log10) ([2]; 0.08 µM): 0.144 ± 0.02 | carbachol-stimulated secreted lysozyme activity (log10) ([2]; 0.4 µM): 0.00359 ± 0.0067 | carbachol-stimulated secreted lysozyme activity (log10) ([2]; 2 µM): -0.107 ± 0.14 | carbachol-stimulated secreted lysozyme activity (log10) ([2]; 10 µM): -0.235 ± 0.1 | basal (log10) ([3]; 0.08 µM): 0.0505 ± 0.11 | basal (log10) ([3]; 0.4 µM): -0.0264 ± 0.011 | basal (log10) ([3]; 2 µM): -0.0535 ± 0.044 | basal (log10) ([3]; 10 µM): -0.14 ± 0.064

CC(C)C[C@H](NC(=O)[C@H]1O[C@@H]1C(=O)O)C(=O)NCCCCN=C(N)N
cellular ATP (log10) ([1]; 0.08 µM): 0.355 ± 0.26 | cellular ATP (log10) ([1]; 0.4 µM): 0.0454 ± 0.073 | cellular ATP (log10) ([1]; 2 µM): 0.171 ± 0.29 | cellular ATP (log10) ([1]; 10 µM): 0.225 ± 0.41 | carbachol-stimulated secreted lysozyme activity (log10) ([2]; 0.08 µM): 0.128 ± 0.034 | carbachol-stimulated secreted lysozyme activity (log10) ([2]; 0.4 µM): 0.0735 ± 0.13 | carbachol-stimulated secreted lysozyme activity (log10) ([2]; 2 µM): 0.00204 ± 0.0023 | carbachol-stimulated secreted lysozyme activity (log10) ([2]; 10 µM): 0.0853 ± 0.093 | basal (log10) ([3]; 0.08 µM): 0.15 ± 0.047 | basal (log10) ([3]; 0.4 µM): 0.015 ± 0.07 | basal (log10) ([3]; 2 µM): 0.0224 ± 0.12 | basal (log10) ([3]; 10 µM): 0.0374 ± 0.045

CCCCNc1ncc(-c2ccc(CN3CCOCC3)cn2)c(NC2CCC(O)CC2)n1 (centres undefined)
cellular ATP (log10) ([1]; 0.08 µM): 0.257 ± 0.077 | cellular ATP (log10) ([1]; 0.4 µM): 0.145 ± 0.2 | cellular ATP (log10) ([1]; 2 µM): 0.109 ± 0.094 | cellular ATP (log10) ([1]; 10 µM): -0.0848 ± 0.26 | carbachol-stimulated secreted lysozyme activity (log10) ([2]; 0.08 µM): 0.0959 ± 0.28 | carbachol-stimulated secreted lysozyme activity (log10) ([2]; 0.4 µM): 0.198 ± 0.17 | carbachol-stimulated secreted lysozyme activity (log10) ([2]; 2 µM): 0.056 ± 0.026 | carbachol-stimulated secreted lysozyme activity (log10) ([2]; 10 µM): -0.165 ± 0.3 | basal (log10) ([3]; 0.08 µM): 0.0467 ± 0.14 | basal (log10) ([3]; 0.4 µM): 0.0902 ± 0.13 | basal (log10) ([3]; 2 µM): 0.0415 ± 0.015 | basal (log10) ([3]; 10 µM): -0.0579 ± 0.26

Cc1cc([C@@H](C)Nc2ccccc2C(=O)O)c2nc(N3CCOCC3)cc(=O)n2c1
cellular ATP (log10) ([1]; 0.08 µM): 0.24 ± 0.17 | cellular ATP (log10) ([1]; 0.4 µM): 0.223 ± 0.13 | cellular ATP (log10) ([1]; 2 µM): -0.509 ± 0.77 | cellular ATP (log10) ([1]; 10 µM): -1.2 ± 0.85 | carbachol-stimulated secreted lysozyme activity (log10) ([2]; 0.08 µM): 0.214 ± 0.12 | carbachol-stimulated secreted lysozyme activity (log10) ([2]; 0.4 µM): 0.185 ± 0.15 | carbachol-stimulated secreted lysozyme activity (log10) ([2]; 2 µM): -0.175 ± 0.14 | carbachol-stimulated secreted lysozyme activity (log10) ([2]; 10 µM): -0.341 ± 0.013 | basal (log10) ([3]; 0.08 µM): 0.108 ± 0.084 | basal (log10) ([3]; 0.4 µM): 0.0757 ± 0.079 | basal (log10) ([3]; 2 µM): -0.13 ± 0.15 | basal (log10) ([3]; 10 µM): -0.248 ± 0.13

CC(=O)Nc1cccc2c1c(Sc1ccc(Cl)cc1)c(C)n2CC(=O)O
cellular ATP (log10) ([1]; 0.08 µM): 0.4 ± 0.25 | cellular ATP (log10) ([1]; 0.4 µM): 0.285 ± 0.3 | cellular ATP (log10) ([1]; 2 µM): 0.0989 ± 0.14 | cellular ATP (log10) ([1]; 10 µM): 0.238 ± 0.28 | carbachol-stimulated secreted lysozyme activity (log10) ([2]; 0.08 µM): 0.0085 ± 0.035 | carbachol-stimulated secreted lysozyme activity (log10) ([2]; 0.4 µM): 0.196 ± 0.22 | carbachol-stimulated secreted lysozyme activity (log10) ([2]; 2 µM): -0.0256 ± 0.095 | carbachol-stimulated secreted lysozyme activity (log10) ([2]; 10 µM): 0.0241 ± 0.067 | basal (log10) ([3]; 0.08 µM): 0.00925 ± 0.048 | basal (log10) ([3]; 0.4 µM): 0.000913 ± 0.093 | basal (log10) ([3]; 2 µM): 0.00127 ± 0.0066 | basal (log10) ([3]; 10 µM): 0.0236 ± 0.069

Cc1cnc(-c2cc(N3CCN(C(=O)CCS(C)(=O)=O)CC3)ncc2Cl)c(C)c1
cellular ATP (log10) ([1]; 0.08 µM): -0.101 ± 0.27 | cellular ATP (log10) ([1]; 0.4 µM): -0.04 ± 0.093 | cellular ATP (log10) ([1]; 2 µM): 0.0548 ± 0.12 | cellular ATP (log10) ([1]; 10 µM): -0.0765 ± 0.26 | carbachol-stimulated secreted lysozyme activity (log10) ([2]; 0.08 µM): 0.317 ± 0.0082 | carbachol-stimulated secreted lysozyme activity (log10) ([2]; 0.4 µM): -0.0414 ± 0.018 | carbachol-stimulated secreted lysozyme activity (log10) ([2]; 2 µM): 0.0445 ± 0.06 | carbachol-stimulated secreted lysozyme activity (log10) ([2]; 10 µM): 0.0743 ± 0.08 | basal (log10) ([3]; 0.08 µM): 0.0785 ± 0.12 | basal (log10) ([3]; 0.4 µM): -0.0294 ± 0.019 | basal (log10) ([3]; 2 µM): 0.0108 ± 0.051 | basal (log10) ([3]; 10 µM): 0.0737 ± 0.046
